Where two headings read alike, the source gives them in different places.
T1: Human C-type lectin domain family 5 member A (CLEC5A), endogenous on human monocytes and M0 macrophages (human, UniProt Q9NY25 1-188)
T1 construct: Endogenous CLEC5A on primary human monocytes and monocyte-derived M0 macrophages; also called MDL-1; M0 macrophages (CLEC5A+) cells
T1 sequence: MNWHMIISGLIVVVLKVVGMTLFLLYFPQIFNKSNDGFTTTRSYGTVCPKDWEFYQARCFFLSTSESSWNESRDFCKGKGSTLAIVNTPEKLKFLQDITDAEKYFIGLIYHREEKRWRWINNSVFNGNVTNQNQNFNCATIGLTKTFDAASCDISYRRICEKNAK

T2: Human CLEC5A His Tag protein (ACROBiosystems, Cat #: CLA-H5243) (human, UniProt Q9NY25 28-188, limits assumed)
T2 construct: Bought protein with a His tag; also called recombinant human CLEC5A protein
T2 sequence: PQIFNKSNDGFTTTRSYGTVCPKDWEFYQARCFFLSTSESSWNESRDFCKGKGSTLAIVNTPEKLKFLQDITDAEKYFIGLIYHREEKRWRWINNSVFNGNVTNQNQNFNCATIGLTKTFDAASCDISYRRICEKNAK


Legend:
HER2 on SK-BR-3 cells [1] = target: HER2 on SK-BR-3 cells (UniProt P04626); assay: cell-based or functional assay
[2] = target: T1, Human C-type lectin domain family 5 …; assay: flow cytometry on human M0 macrophages, anti-human IgG PE
HER2 on SK-BR-3 cells [3] = target: HER2 on SK-BR-3 cells (UniProt P04626); assay: cell-based or functional assay; remark: listed apart in the source
HER2 on SK-BR-3 cells [4] = target: HER2 on SK-BR-3 cells (UniProt P04626); assay: cell-based or functional assay; remark: listed apart in the source
[5] = target: T2, Human CLEC5A His Tag protein …; assay: ELISA, plate coated with human CLEC5A
[6] = target: T1, Human C-type lectin domain family 5 …; assay: flow cytometry on human M0 macrophages, anti-human IgG PE; remark: listed apart in the source

EC50 [2] [nM]	EC50 [5] [µg/mL]	EC50 [6] [nM]	Binder	IC50 (nM), SK-BR-3 cell killing by M0 macrophages (E:T 5:1) (HER2 on SK-BR-3 cells [1]) [nM]	IC50 (nM), SK-BR-3 cell killing by M0 macrophages in the presence of hIgG1 (HER2 on SK-BR-3 cells [3]) [nM]	IC50 (nM), SK-BR-3 cell killing by M0 macrophages in the presence of media (HER2 on SK-BR-3 cells [3]) [nM]	IC50 (nM), SK-BR-3 cell killing by M0 macrophages in the presence of plasma (HER2 on SK-BR-3 cells [3]) [nM]	IC50 (nM), SK-BR-3 cell killing by M1 macrophages (HER2 on SK-BR-3 cells [4]) [nM]	IC50 (nM), SK-BR-3 cell killing by M2 macrophages (HER2 on SK-BR-3 cells [4]) [nM]
1.18			HER2/3A7 (2+2 A) Fc-silenced (bispecific antibody, human IgG1, kappa, also called HER2/3A7 (2+2) Fc-LALAPG) heavy: [about 450 residues with a human IgG1 Fc not given here] light: [about 200 residues not given here]GGGGSGGGGSGGGGSAVVMTQTPASVEAAVGGTVTINCQASQRINNYLSWFQQKPGQPPKLLIYGAATLASGVPSRFKGSGSGTEYTLTISDLEPADAATYYCQCTYGIPSSNYGFGGGTEVVVKGGGGSGGGGSGGGGSGGGGSQSLEESGGDLVKPGASLTLTCTASGFSFSGMYWICWVRQAPGKGLEWIACIYTGSSTTGYASWAKGRFTISKTSSTTVTLQMTSLTAADTATHFCASPYGDSSHYRGLNLWGPGTLVTVSS	0.0408					
3.12			HER2/5C7 (2+2 A) Fc-silenced (bispecific antibody, human IgG1, kappa, also called HER2/5C7 (2+2) Fc-LALAPG) heavy: [about 450 residues with a human IgG1 Fc not given here] light: [about 200 residues not given here]GGGGSGGGGSGGGGSAIVMTQTPSSKSVPVGDTVTINCQASESVDRNNRLAWFQQKPGQPPKLLIYTTSTLASGVPSRFKGSGSGTHFTLTISDVVPDDAATYYCAGYRGAHTDGDAFGGGTEVVVKGGGGSGGGGSGGGGSGGGGSQSLEESGGDLVKPGASLTLTCTASGFSFSRSSYMCWVRQAPGKGLEWIGCLSVGDGHTYYASWAKGRFTISKTSSTSVTLQMTRLTAADTATYFCARAPSYSGDGGHGYDLWGPGTLVTVSS	0.0614	0.00761	0.0142	0.0677		
	0.089	10.8	HER2/5C7 (2+2 A) Fc-optimized (bispecific antibody, human IgG1, kappa, also called HER2/CLEC5A (2+2 A) Fc-optimized antibody) heavy: [about 250 residues not given here][about 200 residues not given here] light: [about 200 residues not given here]GGGGSGGGGSGGGGSAIVMTQTPSSKSVPVGDTVTINCQASESVDRNNRLAWFQQKPGQPPKLLIYTTSTLASGVPSRFKGSGSGTHFTLTISDVVPDDAATYYCAGYRGAHTDGDAFGCGTEVVVKGGGGSGGGGSGGGGSGGGGSQSLEESGGDLVKPGASLTLTCTASGFSFSRSSYMCWVRQAPGKCLEWIGCLSVGDGHTYYASWAKGRFTISKTSSTSVTLQMTRLTAADTATYFCARAPSYSGDGGHGYDLWGPGTLVTVSS	0.006	0.00486	0.00683	0.0238	0.0323	0.00655
